# The list shows a part of the results.
# How the values were obtained:
# Assay in all cases: glycan array binding signal (z-score within array); higher = stronger binding
# Conditions in all cases: glycan notation: IUPAC condensed, linker removed
# Gal6S(b1-4)Glc = target: Gal6S(b1-4)Glc
# Summary of the method: (§1)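 Columns mapping to the same glycan were averaged after glycan names were converted to IUPAC-condensed notation. The data come from 3228 arrays in the Consortium for Functional Glycomics database, limited to those with an available protein sequence. Binding is reported as a within-array Z-score averaged across arrays of one protein sequence and across linkers.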
# Gal6S(b1-4)Glc6S = target: Gal6S(b1-4)Glc6S
# Summary of the method: as §1
# Gal6S(b1-4)GlcNAc = target: Gal6S(b1-4)GlcNAc
# Summary of the method: as §1
# Gal6S(b1-4)GlcNAc6S = target: Gal6S(b1-4)GlcNAc6S
# Summary of the method: as §1
# GalNAc(a1-3)Gal = target: GalNAc(a1-3)Gal
# Summary of the method: as §1
# GalNAc(a1-3)GalNAc = target: GalNAc(a1-3)GalNAc
# Summary of the method: as §1
# GalNAc(b1-3)Gal = target: GalNAc(b1-3)Gal
# Summary of the method: as §1
# [1] = target: GalNAc(b1-3)Gal(a1-4)Gal(b1-4)GlcNAc
# Summary of the method: as §1
# GalNAc(b1-3)GalNAc = target: GalNAc(b1-3)GalNAc
# Summary of the method: as §1
# GalNAc(b1-4)GlcNAc = target: GalNAc(b1-4)GlcNAc
# Summary of the method: as §1
# Glc(a1-4)Glc = target: Glc(a1-4)Glc
# Summary of the method: as §1
# Glc(a1-6)Glc(a1-6)Glc = target: Glc(a1-6)Glc(a1-6)Glc
# Summary of the method: as §1
# Glc(b1-4)Glc = target: Glc(b1-4)Glc
# Summary of the method: as §1
# Glc(b1-6)Glc = target: Glc(b1-6)Glc
# Summary of the method: as §1
# GlcA(b1-3)Gal = target: GlcA(b1-3)Gal
# Summary of the method: as §1
# GlcA(b1-3)GlcNAc = target: GlcA(b1-3)GlcNAc
# Summary of the method: as §1
# GlcA(b1-6)Gal = target: GlcA(b1-6)Gal
# Summary of the method: as §1
# [2] = target: GlcNAc(a1-3)Gal(b1-4)GlcNAc
# Summary of the method: as §1
# [3] = target: GlcNAc(a1-6)Gal(b1-4)GlcNAc
# Summary of the method: as §1
# [4] = target: GlcNAc(b1-2)Gal(b1-3)GalNAc
# Summary of the method: as §1
# [5] = target: GlcNAc(b1-2)Man(a1-3)[GlcNAc(b1-2)Man(a1-6)]Man(b1-4)GlcNAc(b1-4)GlcNAc
# Summary of the method: as §1
# GlcNAc(b1-3)Gal = target: GlcNAc(b1-3)Gal
# Summary of the method: as §1
# [6] = target: GlcNAc(b1-3)Gal(b1-3)GalNAc
# Summary of the method: as §1
# GlcNAc(b1-3)Gal(b1-4)Glc = target: GlcNAc(b1-3)Gal(b1-4)Glc
# Summary of the method: as §1
# [7] = target: GlcNAc(b1-3)Gal(b1-4)GlcNAc
# Summary of the method: as §1
# [8] = target: GlcNAc(b1-3)Gal(b1-4)GlcNAc(b1-3)Gal(b1-4)GlcNAc
# Summary of the method: as §1
# GlcNAc(b1-3)GalNAc = target: GlcNAc(b1-3)GalNAc
# Summary of the method: as §1
# GlcNAc(b1-3)Man = target: GlcNAc(b1-3)Man
# Summary of the method: as §1
# [9] = target: GlcNAc(b1-3)[GlcNAc(b1-4)][GlcNAc(b1-6)]GlcNAc
# Summary of the method: as §1
# [10] = target: GlcNAc(b1-3)[GlcNAc(b1-6)]Gal(b1-4)GlcNAc
# Summary of the method: as §1
# [11] = target: GlcNAc(b1-3)[GlcNAc(b1-6)]GalNAc
# Summary of the method: as §1
# [12] = target: GlcNAc(b1-4)Gal(b1-4)GlcNAc
# Summary of the method: as §1
# GlcNAc(b1-4)GlcNAc = target: GlcNAc(b1-4)GlcNAc
# Summary of the method: as §1
# [13] = target: GlcNAc(b1-4)GlcNAc(b1-4)GlcNAc
# Summary of the method: as §1
# [14] = target: GlcNAc(b1-4)GlcNAc(b1-4)GlcNAc(b1-4)GlcNAc(b1-4)GlcNAc
# Summary of the method: as §1
# [15] = target: GlcNAc(b1-4)GlcNAc(b1-4)GlcNAc(b1-4)GlcNAc(b1-4)GlcNAc(b1-4)GlcNAc
# Summary of the method: as §1
# [16] = target: GlcNAc(b1-4)[GlcNAc(b1-6)]GalNAc
# Summary of the method: as §1
# [17] = target: GlcNAc(b1-6)Gal(b1-4)GlcNAc
# Summary of the method: as §1
binder,measurement,setting,value
"R410P1E11 (Tachypleus tridentatus), TAL2_TACTR (protein) MEKGTPPTHDSDNWMGRAKEIGNGGWDQFQFLFFDPNGYLYAVSNDKLYKASPPQSDTDNWIARATEIGSGGWSGFKFLFFHPNGYLYAVRGQRFYKALPPVSNQD",glycan array binding signal (z-score),Gal6S(b1-4)Glc,-0.313
same,glycan array binding signal (z-score),Gal6S(b1-4)Glc6S,-0.329
same,glycan array binding signal (z-score),Gal6S(b1-4)GlcNAc,-0.276
same,glycan array binding signal (z-score),Gal6S(b1-4)GlcNAc6S,-0.125
same,glycan array binding signal (z-score),GalNAc(a1-3)Gal,7.43
same,glycan array binding signal (z-score),GalNAc(a1-3)GalNAc,0.599
same,glycan array binding signal (z-score),GalNAc(b1-3)Gal,-0.653
same,glycan array binding signal (z-score),[1],-0.37
same,glycan array binding signal (z-score),GalNAc(b1-3)GalNAc,-0.187
same,glycan array binding signal (z-score),GalNAc(b1-4)GlcNAc,0.259
same,glycan array binding signal (z-score),Glc(a1-4)Glc,0.175
same,glycan array binding signal (z-score),Glc(a1-6)Glc(a1-6)Glc,-0.055
same,glycan array binding signal (z-score),Glc(b1-4)Glc,-0.032
same,glycan array binding signal (z-score),Glc(b1-6)Glc,-0.481
same,glycan array binding signal (z-score),GlcA(b1-3)Gal,-0.17
same,glycan array binding signal (z-score),GlcA(b1-3)GlcNAc,2.42
same,glycan array binding signal (z-score),GlcA(b1-6)Gal,-0.188
same,glycan array binding signal (z-score),[2],3.25
same,glycan array binding signal (z-score),[3],10.1
same,glycan array binding signal (z-score),[4],-0.568
same,glycan array binding signal (z-score),[5],-0.589
same,glycan array binding signal (z-score),GlcNAc(b1-3)Gal,-0.332
same,glycan array binding signal (z-score),[6],0.13
same,glycan array binding signal (z-score),GlcNAc(b1-3)Gal(b1-4)Glc,-0.331
same,glycan array binding signal (z-score),[7],0.303
same,glycan array binding signal (z-score),[8],0.435
same,glycan array binding signal (z-score),GlcNAc(b1-3)GalNAc,0.631
same,glycan array binding signal (z-score),GlcNAc(b1-3)Man,-0.405
same,glycan array binding signal (z-score),[9],-0.342
same,glycan array binding signal (z-score),[10],-0.201
same,glycan array binding signal (z-score),[11],-0.242
same,glycan array binding signal (z-score),[12],-0.553
same,glycan array binding signal (z-score),GlcNAc(b1-4)GlcNAc,0.596
same,glycan array binding signal (z-score),[13],-0.068
same,glycan array binding signal (z-score),[14],-0.431
same,glycan array binding signal (z-score),[15],-0.227
same,glycan array binding signal (z-score),[16],0.461
same,glycan array binding signal (z-score),[17],0.308
